# Measurements reported in the supplement of paper PMC8728848.
# This is one part of the list.
# Assays:
# Assay in all cases: glycan array binding signal (z-score within array); higher = stronger binding
# Details in all cases: glycan notation: IUPAC condensed, linker removed
# [1] = target: Fuc(a1-3)[Gal(b1-4)]GlcNAc(b1-4)Gal(b1-4)[Fuc(a1-3)]GlcNAc
# Summary of the method: (§1)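 Glycan array binding is given as a within-array Z-score, which can be read as non-binding when negative. The arrays, 3228 of them, came from the Consortium for Functional Glycomics database and were retained only where the protein sequence was available. Z-scores were averaged across arrays of the same protein sequence at different concentrations or buffers and across linkers.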
# [2] = target: Fuc(a1-3)[Gal(b1-4)]GlcNAc(b1-4)Gal(b1-4)[Fuc(a1-3)]GlcNAc(b1-4)Gal(b1-4)[Fuc(a1-3)]GlcNAc
# Summary of the method: as §1
# [3] = target: Fuc(a1-3)[Gal(b1-4)]GlcNAc(b1-6)GalNAc
# Summary of the method: as §1
# [4] = target: Fuc(a1-3)[Gal(b1-4)]GlcNAc(b1-6)[Gal(b1-3)GlcNAc(b1-3)]Gal(b1-4)Glc
# Summary of the method: as §1
# [5] = target: Fuc(a1-3)[Gal(b1-4)]GlcNAc(b1-6)[Neu5Ac(a2-3)Gal(b1-3)]GalNAc
# Summary of the method: as §1
# [6] = target: Fuc(a1-3)[Gal(b1-4)]GlcNAc6S
# Summary of the method: as §1
# [7] = target: Fuc(a1-3)[Gal3S(b1-4)]GlcNAc
# Summary of the method: as §1
# [8] = target: Fuc(a1-3)[Gal3S(b1-4)]GlcNAc6S
# Summary of the method: as §1
# [9] = target: Fuc(a1-3)[GalNAc(b1-4)]GlcNAc
# Summary of the method: as §1
# [10] = target: Fuc(a1-3)[GalNAc(b1-4)]GlcNAc6S
# Summary of the method: as §1
# [11] = target: Fuc(a1-3)[GalNAc3S(b1-4)]GlcNAc
# Summary of the method: as §1
# [12] = target: Fuc(a1-4)GlcNAc
# Summary of the method: as §1
# [13] = target: Fuc(b1-3)GlcNAc
# Summary of the method: as §1
# [14] = target: Gal(a1-2)Gal
# Summary of the method: as §1
# [15] = target: Gal(a1-3)Gal
# Summary of the method: as §1
# [16] = target: Gal(a1-3)Gal(b1-3)GlcNAc
# Summary of the method: as §1
# [17] = target: Gal(a1-3)Gal(b1-3)GlcNAc(b1-2)Man(a1-3)[Gal(a1-3)Gal(b1-3)GlcNAc(b1-2)Man(a1-6)]Man(b1-4)GlcNAc(b1-4)GlcNAc
# Summary of the method: as §1
# [18] = target: Gal(a1-3)Gal(b1-3)GlcNAc(b1-3)GalNAc
# Summary of the method: as §1
# [19] = target: Gal(a1-3)Gal(b1-3)GlcNAc(b1-6)GalNAc
# Summary of the method: as §1
# [20] = target: Gal(a1-3)Gal(b1-3)[Fuc(a1-4)]GlcNAc(b1-2)Man(a1-3)[Gal(a1-3)Gal(b1-3)[Fuc(a1-4)]GlcNAc(b1-2)Man(a1-6)]Man(b1-4)GlcNAc(b1-4)GlcNAc
# Summary of the method: as §1
# [21] = target: Gal(a1-3)Gal(b1-4)Glc
# Summary of the method: as §1
# [22] = target: Gal(a1-3)Gal(b1-4)GlcNAc
# Summary of the method: as §1
# [23] = target: Gal(a1-3)Gal(b1-4)GlcNAc(b1-3)GalNAc
# Summary of the method: as §1
# [24] = target: Gal(a1-3)Gal(b1-4)GlcNAc(b1-6)GalNAc
# Summary of the method: as §1
# [25] = target: Gal(a1-3)Gal(b1-4)[Fuc(a1-3)]GlcNAc
# Summary of the method: as §1
# [26] = target: Gal(a1-3)Gal(b1-4)[Fuc(a1-3)]GlcNAc(b1-2)Man(a1-3)[Gal(a1-3)Gal(b1-4)[Fuc(a1-3)]GlcNAc(b1-2)Man(a1-6)]Man(b1-4)GlcNAc(b1-4)GlcNAc
# Summary of the method: as §1
# [27] = target: Gal(a1-3)GalNAc
# Summary of the method: as §1
# [28] = target: Gal(a1-3)[Gal(a1-4)]Gal(b1-4)GlcNAc
# Summary of the method: as §1
# [29] = target: Gal(a1-4)Gal(b1-3)GlcNAc(b1-2)Man(a1-3)[Gal(a1-4)Gal(b1-3)GlcNAc(b1-2)Man(a1-6)]Man(b1-4)GlcNAc(b1-4)GlcNAc
# Summary of the method: as §1
# [30] = target: Gal(a1-4)Gal(b1-4)Glc
# Summary of the method: as §1
# [31] = target: Gal(a1-4)Gal(b1-4)GlcNAc
# Summary of the method: as §1
# [32] = target: Gal(a1-4)Gal(b1-4)GlcNAc(b1-2)Man(a1-3)[Gal(a1-4)Gal(b1-4)GlcNAc(b1-2)Man(a1-6)]Man(b1-4)GlcNAc(b1-4)GlcNAc
# Summary of the method: as §1
# [33] = target: Gal(a1-4)Gal(b1-4)GlcNAc(b1-3)Gal(b1-4)Glc
# Summary of the method: as §1
# [34] = target: Gal(a1-4)GlcNAc
# Summary of the method: as §1
# [35] = target: Gal(a1-6)Glc
# Summary of the method: as §1
# [36] = target: Gal(b1-2)Gal
# Summary of the method: as §1
# [37] = target: Gal(b1-3)Gal
# Summary of the method: as §1
# [38] = target: Gal(b1-3)Gal(b1-4)GlcNAc
# Summary of the method: as §1
# [39] = target: Gal(b1-3)Gal(b1-4)GlcNAc(b1-2)Man(a1-3)[Gal(b1-3)Gal(b1-4)GlcNAc(b1-2)Man(a1-6)]Man(b1-4)GlcNAc(b1-4)GlcNAc
# Summary of the method: as §1
# [40] = target: Gal(b1-3)GalNAc
# Summary of the method: as §1
# [41] = target: Gal(b1-3)GalNAc(a1-3)[Fuc(a1-2)]Gal(b1-4)Glc
# Summary of the method: as §1
# [42] = target: Gal(b1-3)GalNAc(a1-3)[Fuc(a1-2)]Gal(b1-4)GlcNAc
# Summary of the method: as §1
# [43] = target: Gal(b1-3)GalNAc(b1-3)Gal(a1-4)Gal(b1-4)Glc
# Summary of the method: as §1
# [44] = target: Gal(b1-3)GalNAc(b1-4)Gal(b1-4)Glc
# Summary of the method: as §1
# [45] = target: Gal(b1-3)GalNAc(b1-4)[Neu5Ac(a2-3)]Gal(b1-4)Glc
# Summary of the method: as §1
binder,measurement,setting,value
"SpnanA (Streptococcus pneumoniae), P62575 (protein) MVIEKEDVETNASNGQRVDLSSELDKLKKLENATVHMEFKPDAKAPAFYNLFSVSSATKKDEYFTMAVYNNTATLEGRGSDGKQFYNNYNDAPLKVKPGQWNSVTFTVEKPTAELPKGRVRLYVNGVLSRTSLRSGNFIKDMPDVTHVQIGATKRANNTVWGSNLQIRNLTVYNRALTPEEVQKRS",glycan array binding signal (z-score),[1],-0.191
same,glycan array binding signal (z-score),[2],-0.223
same,glycan array binding signal (z-score),[3],-0.196
same,glycan array binding signal (z-score),[4],-0.29
same,glycan array binding signal (z-score),[5],0.254
same,glycan array binding signal (z-score),[6],-0.155
same,glycan array binding signal (z-score),[7],-0.187
same,glycan array binding signal (z-score),[8],-0.244
same,glycan array binding signal (z-score),[9],-0.238
same,glycan array binding signal (z-score),[10],-0.281
same,glycan array binding signal (z-score),[11],-0.252
same,glycan array binding signal (z-score),[12],-0.275
same,glycan array binding signal (z-score),[13],-0.24
same,glycan array binding signal (z-score),[14],-0.212
same,glycan array binding signal (z-score),[15],-0.132
same,glycan array binding signal (z-score),[16],-0.287
same,glycan array binding signal (z-score),[17],0.122
same,glycan array binding signal (z-score),[18],-0.3
same,glycan array binding signal (z-score),[19],-0.297
same,glycan array binding signal (z-score),[20],-0.133
same,glycan array binding signal (z-score),[21],-0.296
same,glycan array binding signal (z-score),[22],-0.256
same,glycan array binding signal (z-score),[23],-0.187
same,glycan array binding signal (z-score),[24],-0.31
same,glycan array binding signal (z-score),[25],-0.262
same,glycan array binding signal (z-score),[26],-0.014
same,glycan array binding signal (z-score),[27],-0.252
same,glycan array binding signal (z-score),[28],-0.202
same,glycan array binding signal (z-score),[29],-0.298
same,glycan array binding signal (z-score),[30],-0.238
same,glycan array binding signal (z-score),[31],-0.273
same,glycan array binding signal (z-score),[32],-0.242
same,glycan array binding signal (z-score),[33],-0.236
same,glycan array binding signal (z-score),[34],-0.169
same,glycan array binding signal (z-score),[35],-0.175
same,glycan array binding signal (z-score),[36],-0.252
same,glycan array binding signal (z-score),[37],-0.211
same,glycan array binding signal (z-score),[38],-0.263
same,glycan array binding signal (z-score),[39],-0.261
same,glycan array binding signal (z-score),[40],-0.254
same,glycan array binding signal (z-score),[41],-0.2
same,glycan array binding signal (z-score),[42],-0.201
same,glycan array binding signal (z-score),[43],-0.222
same,glycan array binding signal (z-score),[44],-0.251
same,glycan array binding signal (z-score),[45],-0.232
